Measured values: PMC4860835
Results are given in words; binding and its absence hold for the method and conditions named. In cells and extracts the contact can be indirect. Some results given as binding are weak or reduced against the parent protein; the word gives no strength. For part of these data: Sequences can lack the tags named with a protein. Blank lines part the entries; values can stand above or below the substance they belong to.

Chains of the proteins cited; added tags and fusions are not shown.
UniProt Q8WUM4: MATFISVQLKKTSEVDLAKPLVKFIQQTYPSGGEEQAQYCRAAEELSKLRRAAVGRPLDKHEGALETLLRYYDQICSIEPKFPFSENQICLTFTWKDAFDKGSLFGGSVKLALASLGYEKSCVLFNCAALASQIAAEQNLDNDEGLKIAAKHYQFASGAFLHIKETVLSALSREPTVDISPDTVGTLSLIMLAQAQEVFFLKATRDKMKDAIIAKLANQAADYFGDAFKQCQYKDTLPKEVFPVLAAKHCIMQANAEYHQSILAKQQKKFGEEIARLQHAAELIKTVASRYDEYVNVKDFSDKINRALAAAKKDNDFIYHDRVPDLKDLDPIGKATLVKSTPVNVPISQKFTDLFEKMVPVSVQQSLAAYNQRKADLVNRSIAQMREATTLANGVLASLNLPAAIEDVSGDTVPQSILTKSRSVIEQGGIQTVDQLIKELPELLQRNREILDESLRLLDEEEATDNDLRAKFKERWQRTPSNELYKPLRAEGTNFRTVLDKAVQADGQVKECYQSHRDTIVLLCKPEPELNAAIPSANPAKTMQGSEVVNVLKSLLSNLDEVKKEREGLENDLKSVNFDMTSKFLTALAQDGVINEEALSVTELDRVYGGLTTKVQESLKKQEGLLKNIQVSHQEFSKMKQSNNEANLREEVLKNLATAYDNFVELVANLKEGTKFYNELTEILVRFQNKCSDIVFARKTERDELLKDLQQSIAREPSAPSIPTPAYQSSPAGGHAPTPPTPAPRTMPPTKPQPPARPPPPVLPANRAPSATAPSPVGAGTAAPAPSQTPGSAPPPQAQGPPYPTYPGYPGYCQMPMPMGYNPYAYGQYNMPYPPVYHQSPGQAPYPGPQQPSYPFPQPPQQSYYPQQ
UniProt Q99816: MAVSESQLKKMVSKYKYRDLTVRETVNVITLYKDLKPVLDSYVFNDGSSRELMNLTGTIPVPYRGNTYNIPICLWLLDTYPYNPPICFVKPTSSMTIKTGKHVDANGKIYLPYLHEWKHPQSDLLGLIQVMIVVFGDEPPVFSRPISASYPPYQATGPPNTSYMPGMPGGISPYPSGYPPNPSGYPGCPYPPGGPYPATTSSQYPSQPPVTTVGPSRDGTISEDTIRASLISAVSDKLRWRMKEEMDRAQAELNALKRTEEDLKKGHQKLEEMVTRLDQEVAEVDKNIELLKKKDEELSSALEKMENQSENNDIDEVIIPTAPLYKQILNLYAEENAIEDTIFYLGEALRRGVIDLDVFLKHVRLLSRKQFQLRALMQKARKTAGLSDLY

Tests used:
[1] = biological target: ALIX (endogenous, HEK293 cells) (human (endogenous in HEK293)) (UniProt Q8WUM4); experiment: co-IP; 1A3 anti-ALIX immunoprecipitation from cytosol of HEK293 cells expressing FLAG-TSG101, incubated with GST-ALG-2 plus CaCl2 for 30 min, then 30 min with or without EGTA
[2] = biological target: ALIX (endogenous, HEK293 cells) (human (endogenous in HEK293)) (UniProt Q8WUM4); experiment: co-IP; 3A9 anti-ALIX immunoprecipitation from pooled soluble (S) fractions of flotation centrifugation, 0.1% Triton X-100; HEK293 cells expressing FLAG-ALG-2 and treated with A23187 (Figure 4c) or serum-starved or EGF-stimulated (Figure 4d)
[3] = biological target: ALIX (endogenous, HEK293 cells) (human (endogenous in HEK293)) (UniProt Q8WUM4); experiment: co-IP; 3A9 anti-ALIX immunoprecipitation from pooled membrane (M) fractions of flotation centrifugation, 0.1% Triton X-100; HEK293 cells expressing FLAG-ALG-2 and treated with A23187 (Figure 4c) or serum-starved or EGF-stimulated (Figure 4d)
FLAG-TSG101 [4] = biological target: FLAG-TSG101 (UniProt Q99816); experiment: co-IP; polyclonal anti-FLAG immunoprecipitation from cytosol of HEK293 cells co-expressing FLAG-TSG101 and WT or ∆TDS GFP-ALIX, in the presence or absence of supplemented GST-ALG-2 and CaCl2
FLAG-TSG101 [5] = biological target: FLAG-TSG101 (UniProt Q99816); experiment: co-IP
FLAG-CHMP4B [6] = biological target: T1, FLAG-CHMP4B (UniProt Q9H444); experiment: co-IP; monoclonal anti-FLAG immunoprecipitation from cytosol of HEK293 cells expressing FLAG-CHMP4B or FLAG-TSG101, mixed with 10 μM CaCl2 or CaCl2 plus GST-ALG-2
T1 sequence: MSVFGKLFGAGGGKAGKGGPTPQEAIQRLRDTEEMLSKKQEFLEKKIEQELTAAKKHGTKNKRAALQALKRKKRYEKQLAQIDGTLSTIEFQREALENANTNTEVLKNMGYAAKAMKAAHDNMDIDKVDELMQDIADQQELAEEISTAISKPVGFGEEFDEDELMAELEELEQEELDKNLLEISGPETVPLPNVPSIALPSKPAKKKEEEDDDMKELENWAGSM

FLAG-TSG101 [7] = biological target: FLAG-TSG101 (UniProt Q99816); experiment: as above
FLAG-CHMP4B [8] = biological target: T1, FLAG-CHMP4B; experiment: condition: only control cytosol, without added CaCl2 or GST-ALG-2; co-IP; monoclonal anti-FLAG immunoprecipitation from control cytosol (no CaCl2 or GST-ALG-2 added) of HEK293 cells expressing FLAG-CHMP4B or FLAG-TSG101; TBS pH 7.4
FLAG-TSG101 [9] = biological target: FLAG-TSG101 (UniProt Q99816); experiment: as above

binding [1]: binds
Substance: FLAG-TSG101 (from UniProt Q99816 1-390)

binding [3]: binds
Substance: TSG101 (endogenous, HEK293 cells) (from UniProt Q99816 1-390)
binding [2]: no binding (condition: in the soluble (S) fraction)

binding (FLAG-TSG101 [4]): binds
Substance: WT GFP-ALIX (from UniProt Q8WUM4 1-868)

binding (FLAG-TSG101 [5]): binds
binding (FLAG-CHMP4B [6]): binds
binding (FLAG-TSG101 [7]): binds
binding (FLAG-CHMP4B [8]): no binding
binding (FLAG-TSG101 [9]): no binding
Substance: ALIX (endogenous, HEK293 cells) (from UniProt Q8WUM4 1-868)
